# Source: PubChem BioAssay AID485294 (National Center for Advancing Translational Sciences (NCATS), 2010)
# Where “and” joins values, the source holds several entries; their conditions need not be identical. Equal entries are not always repeated. In all, about 370,000 compounds went through this assay and about 150 (0.041%) were called active. The shares of active, inactive and inconclusive entries below differ from those in the screen. The call rests on the fitted dose curve; in most records, active means well fitted inhibition curve with a large enough effect; inconclusive means small, poorly fitted or top-dose-only effect; inactive means flat fitted curve, though single readings scatter. Where the call is inconclusive, the potency comes from a doubtful curve fit.
# Target: Beta-lactamase (Escherichia coli (strain K12)) (UniProt P00811)
# Sequence of UniProt P00811 (P00811 whole entry, looked up): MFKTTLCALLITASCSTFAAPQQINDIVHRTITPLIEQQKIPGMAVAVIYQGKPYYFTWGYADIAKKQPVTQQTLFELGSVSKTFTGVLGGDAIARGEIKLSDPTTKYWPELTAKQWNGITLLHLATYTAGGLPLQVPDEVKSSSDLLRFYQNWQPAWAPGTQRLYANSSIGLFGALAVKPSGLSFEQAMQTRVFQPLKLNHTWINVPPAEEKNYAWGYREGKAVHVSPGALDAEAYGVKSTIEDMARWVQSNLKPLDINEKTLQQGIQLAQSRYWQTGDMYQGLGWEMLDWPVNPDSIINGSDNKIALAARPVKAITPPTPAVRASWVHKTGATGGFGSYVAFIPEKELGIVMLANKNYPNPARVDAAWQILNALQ
# Assay: qHTS Inhibitors of AmpC Beta-Lactamase (assay with detergent); further: nearly all actives have a fitted effect of over 25% in size
# Details: AmpC hydrolysis of nitrocefin, absorbance 480 nm, 0.01% Triton; series mostly up to 114 µM
# How it was run: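 AmpC (5.3 nM in the dispensed reagent) in 20 mM phosphate pH 7.0 with 0.01% (detergent screen) or 0.0001% Triton X-100 was preincubated with compounds for 15 min at room temperature. Nitrocefin was then added from an 800 uM solution, and hydrolysis was followed at 480 nm.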
# Potency means the concentration at half of the fitted maximal effect; tags describe the fitted curve by direction and shape.
row,Compound,Potency
1,C=C(C)C1CC=C(C)/C(=N/NC(=O)CCCNc2cccc(C)c2)C1 (stereo not given),"inconclusive: 89.1 µM [inhibitor, single point]"
2,COc1ccccc1OCC#CCSc1ncccn1,inactive
3,Cc1ccc(C(=O)N(CC(=O)NC2CCCC2)c2ccccc2Cl)s1,"inconclusive: 1.78 µM [inhibitor, full curve, poor fit]"
4,COc1cc2c(cc1OC)[C@@H]1Cc3ccc(OC)c(OC)c3CN1CC2,inactive
5,Cc1ccccc1Nc1nc(N)nc(COC(=O)/C=C/c2ccco2)n1,"inconclusive: 28.2 µM [inhibitor, full curve]"
6,Cc1nccn1-c1ccc(C(F)(F)F)cc1[N+](=O)[O-],"inconclusive: 70.8 µM [inhibitor, single point]"
7,O=C(CCN1CCOCC1)Nc1ccc2c(c1)CCC2,"inconclusive: 28.2 µM [inhibitor, full curve, poor fit]"
8,CC(C)OCCCN1CN(S(=O)(=O)c2ccc(Cl)cc2)c2nc3ccccc3nc21,"inconclusive: 56.2 µM [inhibitor, partial curve, poor fit]"
9,CN(c1cccc(NC(=O)CN(c2cccc(Cl)c2)S(=O)(=O)c2ccc(Cl)cc2)c1)S(C)(=O)=O,"inconclusive: 25.1 µM [inhibitor, full curve, poor fit]"
10,NNc1nc2ccc(F)cc2s1,"inconclusive: 89.1 µM [inhibitor, partial curve, poor fit]"
11,COc1ccc(N2C(=O)CSC2c2ccc3c(c2)OCO3)c(OC)c1 (stereo not given),"inconclusive: 3.55 µM [inhibitor, full curve, poor fit]"
12,Cc1ccc(C(=O)NCc2ccc3c(c2)OCO3)o1,"inconclusive: 0.224 µM [inhibitor, full curve, poor fit]"
13,COc1ccccc1N1CCN(C(=O)c2cc3cc(F)ccc3[nH]2)CC1,"inconclusive: 0.708 µM [inhibitor, full curve, poor fit]"
14,Cc1cc2occ(CC(=O)O)c2cc1C,"inconclusive: 7.94 µM [inhibitor, full curve]"
15,COc1ccccc1NC(=O)CSCC(=O)N1c2ccccc2CCc2ccccc21,"inconclusive: 3.16 µM [inhibitor, full curve, poor fit]"
16,N=C1C(c2nc3ccccc3c(=O)[nH]2)=C(O)CN1CCO,"inconclusive: 39.8 µM [inhibitor, single point]"
17,Cc1cc(NC(=O)CN2CCN(C)CC2)no1,"inconclusive: 5.01 µM [inhibitor, full curve, poor fit]"
18,CC(C)c1ccc(NC2CCCN(C(=O)c3cc(C(C)C)[nH]n3)C2)cc1 (stereo not given),"inconclusive: 63.1 µM [inhibitor, partial curve, poor fit]"
19,CCCCOCCCn1c(N)c(C(=O)OC(C)COC)c2nc3ccccc3nc21 (stereo not given),inactive
20,C=C(C)c1cccc(C(C)(C)NC(=O)NC2CCCC2)c1,"inconclusive: 35.5 µM [inhibitor, full curve, poor fit]"
21,C(=N\N1CCN(c2ccccn2)CC1)/c1cccc2ccccc12,"inconclusive: 1.58 µM [inhibitor, full curve, poor fit]"
22,CCOc1ccc(NC(=O)CN(C)C(=O)Cn2cnc3c2c(=O)n(C)c(=O)n3C)cc1OCC,"inconclusive: 1.41 µM [inhibitor, full curve, poor fit]"

row,Compound,Potency
1,CCc1cccc(OCCCCNCCO)c1,"inconclusive: 2.51 µM [inhibitor, full curve, poor fit]"
2,CCCc1cc(=O)oc2c(C)c(OC(C)C(=O)NCC(O)c3ccccc3)ccc12 (stereo not given),"inconclusive: 0.562 µM [inhibitor, full curve, poor fit]"
3,CCOc1c(OC(C)=O)ccc(/C=C2\N=C(SCC)SC2=O)c1[N+](=O)[O-],"inconclusive: 3.55 µM [inhibitor, full curve, poor fit]"
4,O=C(Cc1ccc(F)cc1)N/N=C/c1ccncc1,"inconclusive: 10 µM [inhibitor, partial curve]"
5,CC1CCCCC1NC(=O)CSc1nncs1 (stereo not given),"inconclusive: 2.51 µM [inhibitor, full curve]"
6,CC(C)(C)C1CCC(=NOC(=O)c2ccc(F)cc2)CC1 (stereo not given),"inconclusive: 0.631 µM [inhibitor, full curve, poor fit]"
7,COc1ccc(Br)cc1C(=O)Nc1cccc(C)c1,"inconclusive: 0.631 µM [inhibitor, full curve, poor fit]"
8,COc1ccc2c(C)c(CCC(=O)N3C[C@H]4C[C@@H](C3)c3cccc(=O)n3C4)c(=O)oc2c1,"inconclusive: 25.1 µM [inhibitor, full curve, poor fit]"
9,CCc1cccc(C)c1NC(=O)c1cc(CN2CCCC2)on1,inactive
10,CC(C)NC(=O)C1CCCN(S(=O)(=O)c2ccc3c(ccn3C)c2)C1 (stereo not given),inactive
11,O=C1C(=O)N(c2ccccn2)C(c2ccc(F)cc2)/C1=C(/O)c1ccc(Br)cc1 (stereo not given),inactive
12,Cc1cc2c(c(=O)n1Cc1ccccc1)C1O[C@](c3ccsc3)(Cc3ccccc31)O2,"inconclusive: 1.58 µM [inhibitor, full curve]"
13,N#CC1=C(N)OC2=C(C(=O)CCC2)C1c1cc2c(cc1Br)OCO2 (stereo not given),"inconclusive: 3.98 µM [inhibitor, full curve, poor fit]"
14,O=C(/C=C/c1ccco1)NC(=S)Nc1ccc(N2CCOCC2)c(Cl)c1,"inconclusive: 5.62 µM [inhibitor, full curve]"
15,CC(=O)Oc1ccc(/C=C/c2nc3ccccc3c(=O)o2)cc1,inactive
16,O=S(=O)(NCC(c1ccco1)S(=O)(=O)c1cccs1)c1ccccc1 (stereo not given),inactive
17,Cc1ccc(NC(=O)CNCc2ccc(Cl)cc2Cl)cc1S(=O)(=O)N(C)C,"inconclusive: 89.1 µM [inhibitor, single point]"
18,COc1ccc(OC(=O)c2cn(-c3cccc(OC)c3)c(=O)c3ccccc23)cc1,inactive
19,Cc1cccc(-c2csc(N)c2C(=O)OC(C)C)c1,"inconclusive: 56.2 µM [inhibitor, partial curve, poor fit]"
20,Cc1cc(F)ccc1NC(=O)C1CCCN(C(=O)c2cnn(-c3ccccc3)c2-n2cccc2)C1 (stereo not given),inactive
21,CCN1C(=NCCCCO)N[C@@H](c2cccc(F)c2)C(C(=O)OC)=C1C,"inconclusive: 89.1 µM [inhibitor, partial curve, poor fit] and inconclusive: 39.8 µM [inhibitor, full curve, poor fit]"
22,COc1ccccc1CNC(=O)CN1CCC(n2cnc3cc(F)ccc32)CC1,"inconclusive: 25.1 µM [inhibitor, full curve, poor fit]"

row,Compound,Potency
1,COc1cccc(/C(O)=C/c2nc3ccc(C(=O)NCCc4cccc(C)c4)cc3[nH]c2=O)c1,"inconclusive: 28.2 µM [inhibitor, full curve, poor fit]"
2,CC(=O)c1ccc(C(=O)N2CCCC(Nc3ccccc3)C2)s1 (stereo not given),"inconclusive: 7.08 µM [inhibitor, full curve, poor fit]"
3,COc1ccccc1CNC(=O)C(NC(=O)c1ccc(C)cc1)C(C)C (stereo not given),inactive
4,O=C(NCc1ccccn1)c1cc(-c2ccc(-c3ccccc3)cc2)nc2ccccc12,inactive
5,O=C(OCCN1C(=O)c2ccccc2C1=O)c1ccco1,"inconclusive: 39.8 µM [inhibitor, full curve, poor fit]"
6,Cc1cc(Cl)ccc1NC(=O)C1CCCN(c2nnc(C)c3c(C)n(-c4ccccc4)nc23)C1 (stereo not given),inactive
7,COc1ccc(S(=O)(=O)NC2CCCCC2)cc1C(=O)N1CCCCC1,"inconclusive: 56.2 µM [inhibitor, partial curve]"
8,COCCNC(=S)N/N=C/c1c(C)[nH]c2ccccc12,"inconclusive: 112 µM [inhibitor, partial curve, poor fit]"
9,CC(=O)NCC(=O)N1CCCC(C(=O)c2ccc(-c3ccccc3)c(F)c2)C1 (stereo not given),inactive
10,CCNC(=O)O/N=C(\C)c1sc(-c2ccccc2)nc1C,inactive
11,Cc1ccc(-c2noc(CN(C(=O)c3cccs3)C(C)C)n2)cc1,"inconclusive: 1.41 µM [inhibitor, full curve]"
12,O=C(COC(=O)Cc1ccccc1[N+](=O)[O-])NCc1ccc(F)cc1,"inconclusive: 22.4 µM [inhibitor, partial curve]"
13,Cc1ccc(C(=O)N/N=C\c2ccc([N+](=O)[O-])s2)cn1,"inconclusive: 89.1 µM [inhibitor, partial curve]"
14,O=C(Nc1ccc(Br)cc1)C1CC(O)CN1C(=O)OCc1ccccc1 (stereo not given),"inconclusive: 100 µM [inhibitor, single point]"
15,Cc1nnc(N2CCC(C(=O)NC3CCC(C)CC3)CC2)c2nn(-c3ccc(Cl)cc3)c(C)c12 (stereo not given),"inconclusive: 39.8 µM [inhibitor, single point]"
16,CCCC(=O)N1c2nc(-c3ccco3)nn2C2(CCCCC2)[C@@H]2CCCC[C@@H]21,inactive
17,COc1cccc(NC(=O)Cn2c(=O)n(-c3ccc(C)cc3)c(=O)c3ccccc32)c1,inactive
18,CCCCCn1c(CCCNC(=O)c2ccccc2)nc2ccccc21,inactive
19,CCOC(=O)C1=C(N)n2c(s/c(=C\c3cccnc3)c2=O)=C(C(=O)OCC)C1c1cccnc1 (stereo not given),"inconclusive: 0.0224 µM [inhibitor, full curve, poor fit]"
20,Cc1ccc(S(=O)(=O)Nc2c(C)n(C)n(-c3ccccc3)c2=O)cc1C(=O)NCc1ccccc1,"inconclusive: 63.1 µM [inhibitor, partial curve, poor fit]"
21,Cc1ccccc1NC(=O)c1c(C)oc2ccc(O)c(CN(C)Cc3ccccc3)c12,inactive
